Data from PubChem BioAssay AID2100 (National Center for Advancing Translational Sciences (NCATS), 2009).
In all, about 300,000 compounds went through this assay and about 1,200 (0.4%) were called active. The shares of active, inactive and inconclusive entries below differ from those in the screen. The call rests on the fitted dose curve; in most records, active means well fitted inhibition curve with a large enough effect; inconclusive means small, poorly fitted or top-dose-only effect, or another doubt; inactive means no such curve, though single readings can be large or run the other way. Potencies beside an inconclusive call are fits to weak or partial responses and may not hold up.

Each compound was assayed against Lysosomal alpha-glucosidase (Homo sapiens) (UniProt P10253) (assay: qHTS Assay for Inhibitors and Activators of Human alpha-Glucosidase Cleavage of Glycogen). Conditions: recombinant GAA, glycogen substrate, Amplex Red glucose oxidase fluorescence; series mostly up to 76.4 µM.
In short: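 Natural-substrate format: glycogen cleavage by 4 nM human enzyme, glucose read by Amplex Red coupling (Ex 573, Em 610 nm). Normalized to enzyme and no-enzyme controls.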
Potency means the concentration at half of the fitted maximal effect.

Question: For `CCCCCN1N=C(C)CC1=O`, which Potency is on record?
Answer: inconclusive: 28.2 µM [inhibitor, partial curve]

Question: How did the Potency turn out when `Cc1nnsc1C(=O)NNS(=O)(=O)c1ccccc1` was run?
Answer: active: 28 µM

Question: `CCCCc1ccc(-n2nc3ccc(NC(=O)c4cc5ccccc5o4)cc3n2)cc1` was tested. Which Potency did it give?
Answer: inactive

Question: With `COc1ccc(-n2c(=O)c3c4c(sc3n(Cc3ccc(F)cc3)c2=O)CN(C(C)=O)CC4)c(OC)c1` as the compound, how does the Potency read?
Answer: active: 56.2 µM

Question: `Cc1nn(C)c(C)c1S(=O)(=O)N(CC(=O)NCCc1ccc(Cl)cc1)c1ccc(C(C)C)cc1` was tested. Which Potency did it give?
Answer: inactive

Question: With `N#CC1(Cc2ccccc2Cl)c2ccccc2C=CN1C(=O)c1ccccc1` (stereo not given) as the compound, how does the Potency read?
Answer: inactive

Question: Which Potency does the source give for `CCOC(=O)c1cc2c(C)n(-c3ccc(C)cc3)c(C)c2ccc1=O` here?
Answer: inactive

Question: For `Cc1ccc(OCC(=O)NNC(=O)CCc2ccccc2)cc1`, which Potency is on record?
Answer: inconclusive: 3.55 µM [inhibitor, partial curve]

Question: How did the Potency turn out when `O=c1cc(CN2CCc3ccccc3C2)nc2sccn12` was run?
Answer: inconclusive: 39.8 µM [activator, single point]

Question: For `Cc1cccc(-c2nc3c4c(-c5ccccc5)c(-c5ccccc5)oc4ncn3n2)c1`, which Potency is on record?
Answer: inactive

Question: With `COc1ccc(O)c(/C=N\NC(=O)CCn2nnc3ccccc32)c1` as the compound, how does the Potency read?
Answer: inconclusive: 35.5 µM [inhibitor, partial curve]

Question: How did the Potency turn out when `Cc1ccc(S(=O)(=O)NNC(=O)c2sccc2-n2cccc2)cc1` was run?
Answer: inconclusive: 11.2 µM [inhibitor, partial curve]

Question: How did the Potency turn out when `COC(=O)C(=NNc1c(C)n(C)n(-c2ccccc2)c1=O)C(=O)OC` was run?
Answer: inconclusive: 15.7 µM [inhibitor, partial curve]

Question: Which Potency does the source give for `CC(C)(C)NC(=S)N/N=C/c1cc(Br)c(O)c(Br)c1` here?
Answer: inconclusive: 35.5 µM [inhibitor, partial curve]

Question: For `Cc1cccc(Nc2nc3c(s2)CCCC3)c1`, which Potency is on record?
Answer: inconclusive: 31.6 µM [inhibitor, single point]

Question: `CCC(C(=O)NCc1ccco1)N(C(=O)CNS(=O)(=O)c1ccccc1)c1ccc(F)cc1` (stereo not given) was tested. Which Potency did it give?
Answer: inconclusive: 11.2 µM [inhibitor, single point]

Question: `O=C(/C=C\Nc1ccc2c(c1)OCO2)c1ccc2c(c1)OCO2` was tested. Which Potency did it give?
Answer: inconclusive: 44.7 µM [inhibitor, partial curve]

Question: How did the Potency turn out when `O=S(=O)(Nc1cccnc1)c1cccs1` was run?
Answer: inconclusive: 49.7 µM [inhibitor, partial curve]

Question: `Cc1ccc(Nc2c(-c3ccc(N4CCOCC4)cc3)nc3c(C)cccn23)cc1` was tested. Which Potency did it give?
Answer: active: 15.8 µM

Question: For `CCOC(=O)C1Sc2[nH]c(=O)sc2C(c2ccc(Cl)cc2)C1C(=O)OCC` (stereo not given), which Potency is on record?
Answer: inconclusive: 39.5 µM [inhibitor, single point]
